PMC4201484
Results are given in words; binding and its absence hold for the method and conditions named. Binding seen in cells or lysates may run through a third protein. Some results given as binding are weak or reduced against the parent protein; the word gives no strength.

Chains of the proteins cited; added tags and fusions are not shown. Lines headed by an entry give the natural chain unless they say otherwise; changes in a name come on top. A line that says so, or that is headed by a name, gives the form on record, which may keep a tag or linker.
UniProt Q12834: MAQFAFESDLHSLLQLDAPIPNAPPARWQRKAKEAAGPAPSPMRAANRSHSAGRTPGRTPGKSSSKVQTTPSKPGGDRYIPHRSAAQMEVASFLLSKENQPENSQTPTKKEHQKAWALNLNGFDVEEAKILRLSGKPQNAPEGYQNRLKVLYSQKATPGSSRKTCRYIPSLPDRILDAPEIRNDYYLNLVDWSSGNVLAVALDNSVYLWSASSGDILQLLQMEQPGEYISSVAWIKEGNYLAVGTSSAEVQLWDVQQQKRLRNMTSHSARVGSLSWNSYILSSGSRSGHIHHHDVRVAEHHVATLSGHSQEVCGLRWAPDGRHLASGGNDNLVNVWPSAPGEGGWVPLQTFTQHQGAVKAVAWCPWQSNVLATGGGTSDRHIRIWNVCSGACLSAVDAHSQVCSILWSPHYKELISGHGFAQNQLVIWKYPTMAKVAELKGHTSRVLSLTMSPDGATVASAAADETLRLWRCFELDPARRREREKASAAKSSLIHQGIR
UniProt Q9UM11: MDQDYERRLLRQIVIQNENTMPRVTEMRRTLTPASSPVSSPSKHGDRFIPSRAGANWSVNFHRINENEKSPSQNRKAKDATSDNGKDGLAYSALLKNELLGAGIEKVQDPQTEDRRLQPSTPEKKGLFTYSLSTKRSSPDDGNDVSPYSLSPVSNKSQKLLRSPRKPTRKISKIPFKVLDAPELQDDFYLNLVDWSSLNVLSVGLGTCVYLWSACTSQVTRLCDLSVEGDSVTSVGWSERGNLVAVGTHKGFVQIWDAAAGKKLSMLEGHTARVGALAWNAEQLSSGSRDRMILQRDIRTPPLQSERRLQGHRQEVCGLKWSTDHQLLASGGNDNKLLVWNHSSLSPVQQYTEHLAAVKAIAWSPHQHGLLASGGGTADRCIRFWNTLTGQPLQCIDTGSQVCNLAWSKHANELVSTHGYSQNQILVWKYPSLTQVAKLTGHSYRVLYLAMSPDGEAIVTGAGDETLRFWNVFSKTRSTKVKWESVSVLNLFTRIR
UniProt Q13309: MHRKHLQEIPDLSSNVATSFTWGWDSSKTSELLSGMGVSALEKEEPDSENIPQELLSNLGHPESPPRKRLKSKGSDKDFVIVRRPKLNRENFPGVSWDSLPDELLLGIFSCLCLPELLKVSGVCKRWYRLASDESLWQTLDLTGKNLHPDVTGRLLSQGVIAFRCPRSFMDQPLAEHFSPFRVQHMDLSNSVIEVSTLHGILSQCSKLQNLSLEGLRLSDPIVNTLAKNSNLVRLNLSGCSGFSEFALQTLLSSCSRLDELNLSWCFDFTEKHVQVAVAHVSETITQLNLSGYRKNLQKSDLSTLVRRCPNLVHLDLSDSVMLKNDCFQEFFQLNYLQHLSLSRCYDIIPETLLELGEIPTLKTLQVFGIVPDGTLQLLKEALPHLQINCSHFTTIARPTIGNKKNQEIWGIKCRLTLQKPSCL
UniProt Q969U6: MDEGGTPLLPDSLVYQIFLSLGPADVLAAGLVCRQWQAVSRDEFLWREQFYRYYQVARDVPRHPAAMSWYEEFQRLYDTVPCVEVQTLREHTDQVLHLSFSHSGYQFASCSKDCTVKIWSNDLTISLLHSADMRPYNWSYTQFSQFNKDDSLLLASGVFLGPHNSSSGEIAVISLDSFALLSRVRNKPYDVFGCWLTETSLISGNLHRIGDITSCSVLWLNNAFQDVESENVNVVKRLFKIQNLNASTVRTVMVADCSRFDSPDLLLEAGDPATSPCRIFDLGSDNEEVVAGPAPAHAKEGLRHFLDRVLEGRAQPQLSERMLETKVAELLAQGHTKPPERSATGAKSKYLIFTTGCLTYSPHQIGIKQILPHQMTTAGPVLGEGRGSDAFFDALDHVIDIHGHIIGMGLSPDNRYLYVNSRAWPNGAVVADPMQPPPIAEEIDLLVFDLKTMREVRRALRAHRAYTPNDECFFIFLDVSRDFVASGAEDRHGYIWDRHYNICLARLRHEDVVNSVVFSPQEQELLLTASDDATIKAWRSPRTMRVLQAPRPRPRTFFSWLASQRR
UniProt P47736: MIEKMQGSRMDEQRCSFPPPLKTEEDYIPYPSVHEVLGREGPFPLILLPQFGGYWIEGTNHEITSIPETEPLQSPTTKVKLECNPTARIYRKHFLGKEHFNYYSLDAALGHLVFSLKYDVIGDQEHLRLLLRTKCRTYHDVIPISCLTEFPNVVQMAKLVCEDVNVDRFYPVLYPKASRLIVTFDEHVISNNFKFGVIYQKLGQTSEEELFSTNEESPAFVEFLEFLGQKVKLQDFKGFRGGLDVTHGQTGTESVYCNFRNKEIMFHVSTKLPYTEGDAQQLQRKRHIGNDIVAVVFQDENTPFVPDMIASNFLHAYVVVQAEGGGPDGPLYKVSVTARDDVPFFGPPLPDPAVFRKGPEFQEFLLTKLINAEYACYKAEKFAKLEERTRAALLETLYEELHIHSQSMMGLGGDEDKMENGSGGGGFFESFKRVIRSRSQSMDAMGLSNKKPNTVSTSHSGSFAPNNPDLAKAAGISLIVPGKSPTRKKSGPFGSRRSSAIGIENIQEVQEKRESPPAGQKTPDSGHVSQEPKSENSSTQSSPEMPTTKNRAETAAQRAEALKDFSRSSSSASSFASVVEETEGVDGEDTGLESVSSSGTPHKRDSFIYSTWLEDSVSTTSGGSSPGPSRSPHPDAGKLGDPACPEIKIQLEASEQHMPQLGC
HA-Rap1GAP (S525/529A) (P47736, form named): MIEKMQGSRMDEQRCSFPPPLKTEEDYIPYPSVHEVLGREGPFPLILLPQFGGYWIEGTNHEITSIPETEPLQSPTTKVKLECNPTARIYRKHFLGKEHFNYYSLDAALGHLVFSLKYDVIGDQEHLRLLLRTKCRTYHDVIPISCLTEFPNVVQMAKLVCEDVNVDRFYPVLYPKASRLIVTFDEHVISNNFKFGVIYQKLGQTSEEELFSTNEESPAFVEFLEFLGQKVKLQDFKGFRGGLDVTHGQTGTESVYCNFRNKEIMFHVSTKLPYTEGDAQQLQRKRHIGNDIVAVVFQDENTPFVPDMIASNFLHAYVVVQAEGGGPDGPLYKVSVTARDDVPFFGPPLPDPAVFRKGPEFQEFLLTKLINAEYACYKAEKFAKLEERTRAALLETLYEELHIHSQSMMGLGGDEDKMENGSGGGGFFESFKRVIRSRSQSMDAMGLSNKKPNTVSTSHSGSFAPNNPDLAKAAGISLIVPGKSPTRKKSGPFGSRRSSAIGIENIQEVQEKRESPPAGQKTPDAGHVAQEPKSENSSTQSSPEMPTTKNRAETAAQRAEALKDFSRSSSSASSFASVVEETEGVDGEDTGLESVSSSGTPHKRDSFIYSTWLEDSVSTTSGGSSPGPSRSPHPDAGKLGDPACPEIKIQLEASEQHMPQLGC
UniProt Q9UKB1: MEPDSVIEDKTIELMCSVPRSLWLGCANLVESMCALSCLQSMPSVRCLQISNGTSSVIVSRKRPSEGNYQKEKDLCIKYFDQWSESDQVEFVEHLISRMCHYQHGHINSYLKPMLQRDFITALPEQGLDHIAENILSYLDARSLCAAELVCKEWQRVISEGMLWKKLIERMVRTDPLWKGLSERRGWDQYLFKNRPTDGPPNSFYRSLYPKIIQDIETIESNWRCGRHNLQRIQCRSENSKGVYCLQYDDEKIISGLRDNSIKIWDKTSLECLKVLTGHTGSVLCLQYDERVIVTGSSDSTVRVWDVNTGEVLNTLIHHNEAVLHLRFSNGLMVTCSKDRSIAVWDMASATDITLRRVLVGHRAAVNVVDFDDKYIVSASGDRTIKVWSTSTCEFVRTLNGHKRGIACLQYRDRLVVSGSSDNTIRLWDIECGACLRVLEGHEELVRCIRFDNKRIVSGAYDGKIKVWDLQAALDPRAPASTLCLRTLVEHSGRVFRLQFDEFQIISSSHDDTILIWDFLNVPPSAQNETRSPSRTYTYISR

How the values were obtained:
Myc-PLK1 (wild type) = Myc-PLK1 (wild type) (UniProt P53350); assay: co-IP; 293T cells co-transfected with the two tagged constructs, lysed in 1X cell lysis buffer (Cell Signaling); immunoprecipitation with anti-Myc, anti-HA or anti-Flag antibody overnight at 4°C, protein A/G beads, 5 washes; immunoblotting for the tags
Myc-Cdc20 = Myc-Cdc20 (UniProt Q12834); assay: as above
Myc-Cdh1 = Myc-Cdh1 (UniProt Q9UM11); assay: as above
Myc-Skp2 = Myc-Skp2 (UniProt Q13309); assay: as above
Myc-Fbw5 = Myc-Fbw5 (UniProt Q969U6); assay: as above
[1] = target: HA-Rap1GAP (S525/529A) (human) (UniProt P47736); assay: as above
[2] = target: HA-Rap1GAP (S529A) (human) (UniProt P47736); assay: as above
[3] = target: HA-Rap1GAP (wild type) (human) (UniProt P47736); assay: as above
[4] = target: Flag-Rap1GAP (wild type) (human) (UniProt P47736); assay: as above
[5] = target: endogenous Rap1GAP (human (endogenous in HeLa)) (UniProt P47736); assay: co-IP; endogenous proteins; nocodazole-arrested HeLa cells (double thymidine block, release into nocodazole; MG132 for the last 4 h for β-TrCP); lysates incubated with protein A/G sepharose with control IgG or Rap1GAP antibody; immunoblotting

Question: For “Flag-Rap1GAP (S542A/P543A) (from UniProt P47736 1-663)”, which binding (Myc-PLK1 (wild type)) is on record?
Answer: binds

Question: For “Flag-Rap1GAP (S625A/P626A) (from UniProt P47736 1-663)”, which binding (Myc-PLK1 (wild type)) is on record?
Answer: no binding

Question: With “Flag-Rap1GAP (wild type) (from UniProt P47736 1-663)” as the substance, how does the binding (Myc-Cdc20) read?
Answer: no binding

Question: What about the binding (Myc-Cdh1) of the same substance?
Answer: no binding

Question: And the binding (Myc-Skp2)?
Answer: no binding

Question: And the binding (Myc-Fbw5)?
Answer: no binding

Question: What about the binding (Myc-PLK1 (wild type)) of the same substance?
Answer: binds

Question: “Flag-β-TrCP2 (from UniProt Q9UKB1 1-542)” was tested. Which binding [1] did it give?
Answer: no binding

Question: And the binding [2]?
Answer: no binding

Question: And the binding [3]?
Answer: binds

Question: How did the binding (Myc-PLK1 (wild type)) turn out when “HA-Rap1GAP (S484A) (from UniProt P47736 1-663)” was run?
Answer: binds

Question: How did the binding (Myc-PLK1 (wild type)) turn out when “HA-Rap1GAP (S525/529A) (from UniProt P47736 1-663)” was run?
Answer: binds

Question: For “HA-Rap1GAP (wild type) (from UniProt P47736 1-663)”, which binding (Myc-PLK1 (wild type)) is on record?
Answer: binds

Question: With “Myc-PLK1 (wild type) (from UniProt P53350 1-603) (enzyme)” as the substance, how does the binding [4] read?
Answer: binds

Question: How did the binding [5] turn out when “endogenous PLK1 (from UniProt P53350 1-603) (enzyme)” was run?
Answer: binds
